The structures appear in SMILES notation. “And” between values parts separate entries of the source, which are not always exact repeats. Equal entries are not always repeated.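 Cultured in 96-well plates, cells were exposed to test compound for 48 hours across five concentrations. GI50 marks 50% less growth. TGI: total growth inhibition.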

The assay relates to NCI-H322M lung. Kind of assay: DTP human tumour cell line panel, 48 h.
Turning to `Cc1cc(S(=O)(=O)Nc2n[nH]c(Nc3ccccc3)n2)c(SCC(=O)O)cc1Cl`, the TGI is over 100 µM.

In turn, `CSc1nc2c(c(O)c(C)c(=O)n2C2OC(COC(C)=O)C(OC(C)=O)C(OC(C)=O)C2OC(C)=O)c(=O)n1C` (stereo unspecified) came in with a TGI of over 100 µM.

Regarding `CC[N+]1(C)CCC(O)(c2ccc(C)cc2)C(C(=O)c2ccc(C)cc2)C1` (stereo unspecified), the concentration for total growth inhibition (TGI) was over 100 µM.

With `C#CCOCC12C=CC(O1)C1COC(=O)C12` (stereo unspecified), the TGI was over 100 µM.

On to `NCCCCNCCCNC(=O)CNC(=O)CC(O)C(N)CCCC(NC(=O)C(CN)NC(=O)C(O)CNC(=O)CC(N)c1ccc(O)cc1)C(=O)O` (stereo unspecified), for which the TGI is over 10 µM.

Turning to `Cn1cc(C2=C(c3cn(C)c4ccc(N)cc34)C(=O)NC2=O)c2ccccc21`, the GI50 is 16.7 µM and the TGI is over 25 µM.

As for `Nc1cc(N)c2nc(-c3ccccc3)c(Oc3ccc(F)cc3)nc2c1`, the GI50 is 16.9 µM and the TGI was 36.9 µM.

Take `C/C(=N\O)c1ccc(Nc2cc(-n3nnc4ccccc43)nc3ccccc23)cc1`: the GI50 is 2.97 µM and the TGI worked out at 23.7 µM.

Regarding `Cc1cnc2[nH]c(-c3cccc(F)c3)cc(=O)c2c1`, the TGI was over 100 µM.

As to `Nc1nncc2[nH]cnc12`, the TGI was over 100 µM.

For `CSc1ccc(/C=C2\CNC/C(=C\c3ccc(SC)cc3)C2=O)cc1`, the GI50 is 150 µg/mL; the TGI is > 371 µM and 150 µg/mL.

As for `O=c1ccn(-c2ccccn2)c(=O)n1-c1ccccn1`, the TGI is over 100 µM.

Take `COc1cc(-c2oc3ccccc3c(=O)c2O)cc(OC)c1OC`: the TGI was over 100 µM.

`N#Cc1nc(CCCN2C(=O)c3ccccc3C2=O)oc1N` displayed a concentration for total growth inhibition (TGI) of over 100 µM.

`COc1ccc(C2C(Cl)C(=O)N2n2cnc3ccccc3c2=O)cc1OC` (stereo unspecified) came in with a TGI of over 100 µM.

Take `C[C@]12CC[C@@H]3c4ccc(O)c([N+](=O)[O-])c4CC[C@H]3[C@@H]1CC[C@@H]2NS(=O)(=O)c1ccc(C(F)(F)F)cc1`: the GI50 is 3.05 µM and the TGI came out at 11 µM.

`CCCCN1C(=O)CC2[C@@H]3CCc4cc(OC)ccc4C3CC[C@]2(C)C1=O` (stereo partly specified) registered a TGI of over 10 µM.

Take `CC(C)c1ccc2nc3ccc(C(=O)NCCN(C)C)cn3c(=O)c2c1`: the concentration for total growth inhibition (TGI) was 79.7 µM.

`CSc1ccc(C2=Nn3c(nnc3-c3ccc(F)c(Cl)c3)SC2)cc1`: the GI50 was 26 µM and the TGI was over 100 µM.

Consider `CC1=C(C(=O)NC2CCCCC2)CC(C(=O)NC2CCCCC2)=C(C)N1`, for which the TGI was over 100 µM.

As to `CCOc1ccc(N=Nc2ccc3cc(/C(C)=N/NC(=O)/C(C#N)=C\c4ccc(N(CCC#N)CCC#N)cc4)c(=O)oc3c2)cc1`, the TGI is over 10 µM.

For the compound `C=C1C(=O)O[C@@H]2C[C@@]3(C)CC(=O)C=C(C)[C@@H]3C[C@H]12`, the TGI was over 100 µM.

`N=C(N)c1ccc(-c2ccc(-c3ccc(Cl)cc3Cl)o2)cc1`: the GI50 was 1.66 µM and the TGI worked out at 3.05 µM.

Take `Cc1cc(C)c2c(c1)CN1CN2Cc2cc(C)cc(C)c21`: the TGI is over 100 µM.

Take `COC(=O)C1=C(OC(=O)c2ccc(Cl)cc2)C(C(=O)OC)[C@@]2(O)[C@@H](C(=O)OC)C(c3ccccc3C(F)(F)F)C[C@@H]1[C@@H]2C(=O)OC` (stereo partly specified): the GI50 is 25.1 µM and the TGI stood at 61.6 µM.

In turn, `COc1cc2[nH]c(=O)c3cc(-c4ccccc4)cc4c(Cl)nc(c1OC)c2c43` returned a TGI of over 91.5 µM.

In the case of `O=C(Nc1ccc(OC(F)(F)F)cc1)c1sccc1NCc1ccnc2ccccc12`, the GI50 was 3.83 µM and the TGI is over 87.9 µM.

Regarding `O=C(O)c1cc[c]([Hg][S]c2ncnc3nc[nH]c23)cc1`, the GI50 was 15 µM and the TGI was over 100 µM.

The compound `Cn1nc2c(c1N)Cc1c(nn(C)c1N)-c1ccccc1-2` displayed a TGI of over 100 µM.

Compound `CCN(CC)c1ccc(NC(=S)NN(C)C)cc1` had a TGI of over 10 µM.

For the compound `CCOC(=O)/C=C(/C=C\COC1CCCCO1)c1ccccc1` (stereo unspecified), the TGI was over 100 µM.

Take `O=CN1CCN(C(=O)c2ccco2)C1=S`: the TGI came to 47.7 µM.

Turning to `CC(C)(C)c1cc(/C=C2/NC(=O)NC2=O)cc(C(C)(C)C)c1O`, the TGI was 29.8 µM.

On to `NCCN(CCN(C(=O)Nc1ccccc1)c1ccccc1)C(=O)Nc1ccccc1`, for which the TGI is 76.8 µM.

Regarding `CC1(C)O[C@H]2OC3CCC(=O)CC3(O)[C@H]2O1` (stereo partly specified), the TGI was over 100 µM.

`COC(=O)c1nc(NN)[nH]c(=O)c1CCCCCc1c(C(=O)OC)[nH]c(NN)cc1=O` came in with a TGI of over 100 µM.

As for `CN(C)CCCNc1cc(O)c2c(c1O)C(=O)c1ccccc1C2=O`, the TGI came to 24.1 µM.

On to `Cc1cccc(NS(=O)(=O)c2ccc(N=Nc3c(O)c(C(=O)O)cc4ccccc34)cc2)n1`, for which the TGI is over 100 µM.

Turning to `CC1(C)OC[C@@H](C[C@H](O)COCc2ccccc2)O1`, the TGI is over 100 µM.

`O=C1N/N=C\c2ccc(cc2)OCc2cccc(n2)COc2ccc(cc2)/C=N\NC1=O` showed a TGI of over 25 µM.

In the case of `COc1cc(C2c3cc4c(cc3[C@@H](Nc3ccc(N(C)C)cc3)[C@H]3COC(=O)C23)OCO4)cc(OC)c1O` (stereo partly specified), the GI50 is 9.28 µM; the TGI is 75 µM and 92.4 µM.

`N#CC(C#N)SCc1ccccc1` returned a total growth inhibition concentration (TGI) of over 100 µM.

Take `CN(C)c1ccc(/C=c2/c3ccccc3n3c2cc(-c2ccccc2)[n+]3C)cc1`: the TGI came to 2.59 µM.

Regarding `O=C(/C=C\Nc1ccccc1O)C(F)(F)F`, the TGI was over 100 µM.

With `Cc1nnc2n1-c1ccccc1N(Cc1ccccc1)CC2`, the TGI was over 100 µM.

For the compound `CCN(c1ccc(CO)c(Cl)c1)C(C)c1ccc(F)cc1` (stereo unspecified), the GI50 is 14.2 µM and the TGI came to 27.6 µM.

For the compound `CCN(CCCCCCCCCCN1CC(=O)N(CCCCCCCCCCN(CC)Cc2ccccc2OC)CC1=O)Cc1ccccc1OC`, the GI50 is 3.51 µM and the TGI was found to be 12.6 µM.

In the case of `CCCO/N=[N+](\[O-])N(CC)CC`, the TGI is over 100 µM.

In the case of `Cc1cc(Cl)ccc1NC(=O)C(=O)Cc1nc2ccc(C(=O)c3ccccc3)cc2[nH]c1=O`, the TGI was over 100 µM.

In turn, `Cc1cc(O)c2c(c1)C(O)(c1ccc3c(c1O)C(=O)c1c(O)cc(C)cc1C3(O)C1OC(CO)C(O)C(O)C1O)c1cccc(O)c1C2=O` (stereo unspecified) had a TGI of 31.4 µM. This lies in the double-digit micromolar range.

Consider `CCc1ccccc1NC(=O)C(=O)C(C(=O)c1ccc(OC)cc1)c1ccc(OC)cc1` (stereo unspecified), for which the TGI is over 100 µM.

As for `O=C1CC(c2ccccc2Cl)C2(C(=O)NC(=O)NC2=O)C(c2ccccc2Cl)C1` (stereo unspecified), the TGI is over 100 µM.

Take `Clc1cc(C(c2cc(Cl)sc2Cl)c2cc(Cl)sc2Cl)c(Cl)s1`: the TGI was over 100 µM.

As for `O=[N+]([O-])/C(Cl)=C(/C(Cl)=C(Cl)Cl)N1CCCCC1`, the TGI was found to be 29.3 µM.

As for `O=C1N[C@@H]2CCC[C@@H]2[C@@H]1c1ccc(Cl)cc1`, the TGI is over 100 µM.

For `Cc1cc([N+](=O)[O-])c(C)c2c1[nH]c1ccc(/C(CCC3CCCC3)=N\N)cc12`, the TGI was 31 µM.

The compound `C[n+]1c(-c2ccc(NC(=O)c3ccc(C(=O)Nc4ccc(-c5cn6ccccc6[n+]5C)cc4)cc3)cc2)cn2ccccc21` displayed a TGI of over 100 µM.

For `COc1cc(/C=C2\CN(C)CC3=C2Nc2nc(SC)[nH]c(=O)c2C3c2cc(OC)c(OC)c(OC)c2)cc(OC)c1OC` (stereo unspecified), the GI50 is 6.6 µM and the TGI was 19.7 µM.

Regarding `N#C/C(=C\c1cccc(Br)c1)c1nc2ccccc2c(=O)[nH]1`, the TGI was over 100 µM.

As for `Clc1ccc([O][In]([O]c2ccc(Cl)cn2)[O]c2ccc(Cl)cn2)nc1`, the GI50 is over 100 µM and the TGI was over 100 µM.

`O=C(c1ccccc1)c1c(CC(O)c2cccnc2)n(C(=O)c2ccccc2)c2ccccc12` (stereo unspecified) displayed a TGI of over 100 µM.

As to `CC12CC3(C)CC(C)(C1)CC(N=[N+]=[N-])(C2)C3`, the TGI was over 100 µM.

For the compound `C=C1CC(COc2ccc3c(C)c(C)c(=O)oc3c2C)(c2ccccc2)OC1=O` (stereo unspecified), the total growth inhibition concentration (TGI) stood at 23.9 µM.

With `Cc1cc(N(CCNc2ccnc3cc(Cl)ccc23)Cc2ccc3c(c2)OCO3)nc(N2CCN(C)CC2)n1`, the GI50 was 2.73 µM and the TGI was determined as 9.39 µM.

With `CN1CCCN(CCNc2nccc(-c3c(-c4cccc(O)c4)nc4sccn34)n2)S1(=O)=O`, the GI50 was 4.42 µM and 8.03 µM; the TGI was 75 µM and > 100 µM.

In turn, `CCCCCCCCCCCCOCCOCCOCCOCCOCCOCC(=O)NC(Cc1ccccc1)C(=O)Oc1ccc([N+](=O)[O-])cc1` (stereo unspecified) came in with a TGI of over 100 µM.

Consider `CC(O)CNC1=CC(=O)C(=O)c2ccccc21` (stereo unspecified), for which the total growth inhibition concentration (TGI) came out at 31.2 µM.

`COc1ccc(OC)c(NC(=O)C(=O)C(C(=O)c2ccccc2F)C2OC(=O)c3ccccc32)c1` (stereo unspecified) displayed a total growth inhibition concentration (TGI) of over 100 µM.

Take `C[C@H](c1ccccc1)N1C(=O)[C@@H](OCc2ccccc2)[C@H]1[C@H](COC(=O)COCc1ccccc1)OCc1ccccc1`: the concentration for total growth inhibition (TGI) was over 100 µM.

For the compound `O=C1CS/C(=N/N=C/c2cn(Cc3ccc(Cl)cc3Cl)c3ccccc23)N1`, the concentration for total growth inhibition (TGI) was over 100 µM.

Turning to `C[n+]1cc2c3c(ccc2c2ccc4cc5c(cc4c21)OCO5)OCO3`, the GI50 is 1.22 µM and the TGI was found to be 2.47 µM.

As for `Cc1cccc(NC(=O)c2sc3nc4c(cc3c2N)CCCC4)c1C`, the GI50 is 0.719 µM and the TGI is over 100 µM.

Compound `O=C(CCc1nc(=S)[nH][nH]1)NC12CC3CC(CC(C3)C1)C2` had a TGI of over 100 µM.

Consider `Clc1ccc(COC(Cn2ccnc2)c2ccc(Cl)cc2Cl)cc1` (stereo unspecified), for which the GI50 is 6.71 µM; the TGI is 20.2 µM and 25.5 µM and 25.7 µM.

With `C=C(C)[C@H]1CC(=O)/C(C)=C\CC/C(C)=C/CC[C@@]2(C)O[C@@H]2C1`, the TGI was over 100 µM.

In the case of `COc1ccc(C(=O)N2c3ccccc3Sc3ccccc32)c(F)c1`, the GI50 was 8.13 µM and the concentration for total growth inhibition (TGI) is over 100 µM.

In turn, `CC1(C)N=C(N)N=C(N)N1c1cccc(OCc2cccc(N)c2)c1` showed a TGI of over 100 µM.

With `O=P1(C(O)/C=C/c2ccccc2)N(Cc2ccccc2)[C@@H]2CCCC[C@H]2N1Cc1ccccc1` (stereo partly specified), the TGI amounted to 51.4 µM.

Regarding `Cc1ccc2c(c1C)CC1(Cc3c(C)ccc(C)c3C1=O)C2=O` (stereo unspecified), the TGI is over 100 µM.

The compound `O=C1c2ccccc2N2OC3(N4CCCC4)CCCC3C12c1ccccc1` (stereo unspecified) yielded a TGI of over 100 µM.

`Clc1ccccc1NN(Cc1ccccn1)c1ccccc1Cl` showed a TGI of 57.2 µM.

Compound `Cn1c2c(c3ccccc31)CCN1C(=O)C34CCCC3CC21S4` (stereo unspecified) registered a total growth inhibition concentration (TGI) of over 100 µM.

On to `COc1ccc(C(C2=C(C)C(=O)c3ccccc3C2=O)c2ccc(C(C)C)cc(=O)c2O)cc1` (stereo unspecified), for which the concentration for total growth inhibition (TGI) was over 100 µM.

For the compound `N#Cc1nc(C2CCC(=O)O2)oc1N` (stereo unspecified), the TGI is over 100 µM.

`O=C(OC12CC3CC(CC(C3)C1)C2)c1ccc(NCc2cc(O)ccc2O)cc1`: the TGI came to 20.7 µM.

As a reminder, the TGI is the concentration giving total growth inhibition. A word on the GI50: it is the concentration giving 50% growth inhibition.

Source of the values: PubChem BioAssay (NCI).
